Results: publication PMC4336329 (PLoS ONE, 2015)
About 2,200 (0.71%) of roughly 310,000 compounds showed an effect of 50% or more. The effect is printed as a negative number. This is one part of the list.

Target: human ether-à-go-go-related gene (hERG) potassium channel (human, UniProt Q12809)
Test: primary screen, population patch clamp on CHO cells stably expressing hERG

Sequence of human ether-à-go-go-related gene (hERG) potassium channel (Q12809 whole entry, looked up): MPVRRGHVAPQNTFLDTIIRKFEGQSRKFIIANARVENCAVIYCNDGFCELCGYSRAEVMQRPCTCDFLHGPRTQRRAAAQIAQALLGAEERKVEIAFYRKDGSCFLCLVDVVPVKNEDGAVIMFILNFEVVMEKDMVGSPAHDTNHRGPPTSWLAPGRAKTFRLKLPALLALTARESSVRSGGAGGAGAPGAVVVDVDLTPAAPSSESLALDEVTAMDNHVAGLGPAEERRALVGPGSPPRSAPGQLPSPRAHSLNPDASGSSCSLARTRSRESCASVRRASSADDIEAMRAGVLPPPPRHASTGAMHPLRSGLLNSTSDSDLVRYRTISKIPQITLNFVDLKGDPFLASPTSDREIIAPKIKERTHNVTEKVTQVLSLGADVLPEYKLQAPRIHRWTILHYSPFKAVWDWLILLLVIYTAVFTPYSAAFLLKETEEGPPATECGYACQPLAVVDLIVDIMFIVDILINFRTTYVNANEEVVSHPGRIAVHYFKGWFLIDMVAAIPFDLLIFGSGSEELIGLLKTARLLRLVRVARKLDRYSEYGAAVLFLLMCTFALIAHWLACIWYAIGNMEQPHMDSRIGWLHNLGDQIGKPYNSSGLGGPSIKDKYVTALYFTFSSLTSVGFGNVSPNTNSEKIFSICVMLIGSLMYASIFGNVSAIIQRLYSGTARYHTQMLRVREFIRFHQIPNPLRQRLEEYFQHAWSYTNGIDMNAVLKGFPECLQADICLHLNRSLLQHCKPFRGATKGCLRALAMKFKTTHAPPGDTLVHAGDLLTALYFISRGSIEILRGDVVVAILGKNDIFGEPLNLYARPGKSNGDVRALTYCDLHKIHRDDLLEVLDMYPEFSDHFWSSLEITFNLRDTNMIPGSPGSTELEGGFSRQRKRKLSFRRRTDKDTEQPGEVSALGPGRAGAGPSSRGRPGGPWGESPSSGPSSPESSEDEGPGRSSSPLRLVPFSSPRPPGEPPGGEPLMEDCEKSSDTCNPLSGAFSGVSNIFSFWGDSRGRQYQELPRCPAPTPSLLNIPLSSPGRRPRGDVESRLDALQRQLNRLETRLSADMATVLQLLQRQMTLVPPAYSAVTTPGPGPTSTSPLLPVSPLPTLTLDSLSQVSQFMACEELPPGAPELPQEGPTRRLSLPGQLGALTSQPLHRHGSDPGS

| SMILES | hERG current change (%, negative = inhibition) at 1uM |
| --- | --- |
| OCC1(Cc2ccccc2C(F)(F)F)CCN(Cc2ccc3c(c2)CCO3)CC1 | 4.73% |
| Cc1ccc(SCCC(=O)Nc2ccccc2C(=O)NC2CCCCC2)cc1 | 10.1% |
| CCOc1ccc(NC(=S)c2ccncc2)cc1 | 10.3% |
| Cc1c(Cl)c([N+](=O)[O-])nn1CCCC(=O)NC(C)c1ccccc1 (stereo not shown) | 0.0382% |
| C/C(=N\NC(=O)CC1N=C(Cc2ccccc2)NNC1=O)c1ccc(Cl)cc1Cl (stereo not shown) | -2.12% |
| CC1CN(C(=O)CCC(=O)NCc2ccc(Cl)cc2)c2ccccc2S1 (stereo not shown) | -5.88% |
| Cc1ccc(C(CCN)c2ccco2)cc1 (stereo not shown) | 4.59% |
| CN(C(=O)Cn1nnc2ccccc2c1=O)C1CCCCC1 | -2.85% |
| COc1ccc(NC(=O)N2CCCC2C(=O)Nc2ccc(C)cc2C)cc1 (stereo not shown) | 13.1% |
| COc1ccc(S(=O)(=O)n2nc(OC(=O)c3ccccc3Br)cc2N)cc1 | 6.05% |
| Cc1cccc(C(=O)N2CCC(=O)N(C(COCc3cccc(Cl)c3)Cc3ccccc3)CC2)c1 (stereo not shown) | 8.09% |
| O=C(Nc1ccc(NC(=O)c2ccccn2)cc1)C(=O)Nc1ccc2c(c1)OCCO2 | 17.3% |
| c1ccc(Cn2nnnc2CN2CCOCC2)cc1 | 2.76% |
| Cc1cc(C[n+]2cc(Br)ccc2N)c2ncccc2c1.[Br-] | -34.2% |
| CC(=O)c1ccc(N2CCN(S(=O)(=O)c3ccc4ccccc4c3)CC2)cc1 | -2.98% |
| COc1ccccc1N1CCN(C(=O)c2noc(C(C)C)c2[N+](=O)[O-])CC1 | 23.5% |
| COc1ccc(C(=O)Nc2ccccc2C(=O)NC(Cc2ccc(O)cc2)C(=O)NNC(=O)c2ccc(C)cc2)cc1 (stereo not shown) | 1.6% |
| COc1ccc(-c2ccc3oc(-c4ccc(OC)cc4)c(C#CCCO)c3c2)cc1 | 1.64% |
| CC(=O)N[C@@H](Cc1c[nH]c2ccccc12)C(=O)OCc1ccc(C#N)cc1 | -1.17% |
| O=C1ON=C(c2cccc([N+](=O)[O-])c2)/C1=C/c1ccc(O)cc1 | 15.6% |
| O=C1CSC(c2ccccc2F)N1c1ccccc1 (stereo not shown) | 8.62% |
| COc1ccc(NS(=O)(=O)c2ccc(NS(=O)(=O)c3ccc(SC)cc3)cc2)c(OC)c1 | 6.71% |

| SMILES | hERG current change (%, negative = inhibition) at 1uM |
| --- | --- |
| CCCc1cc(=O)[nH]c(/N=C(/NC(=O)C(C)N2C(=O)c3ccccc3C2=O)Nc2ccccc2)n1 (stereo not shown) | 15% |
| COc1ccccc1C1/C(=C(/O)c2ccc(OC(C)C)cc2)C(=O)C(=O)N1c1cc(C)on1 (stereo not shown) | 8.98% |
| Cn1c(COc2cccc3cccnc23)nnc1SCC(=O)O | 12.1% |
| O=C(Nc1nnc(SCc2ccccc2F)s1)C1=COCCO1 | -2.96% |
| COc1cc(NS(=O)(=O)c2c(C)oc3c(F)c(F)c(F)c(F)c23)cc(OC)c1OC | 2.11% |
| COc1ccc(/C=C2/C(=O)N=C(N)N2C)cc1OC | 9.58% |
| COc1ccc(C/C(C)=N/NC(=S)Nc2ccccc2)cc1 | 7.72% |
| COc1cc2c(cc1OC)[C@H](Cc1ccc(O)cc1)NCC2 | 10.8% |
| CN1CCCN(C(=O)COc2ccccc2Br)CC1 | 3.64% |
| CN(C)S(=O)(=O)c1cccc(NC(=O)c2ccc(Sc3nncn3C)c([N+](=O)[O-])c2)c1 | 12.7% |
| Nn1c(COc2cccc(Cl)c2)nc2ccccc2c1=O | -1.31% |
| COC(=O)Nc1ccc(S(=O)(=O)Nc2ccccc2F)cc1 | 11.8% |
| O=C(Cc1ccc(S(=O)(=O)N2CCOCC2)s1)Nc1cc(C(F)(F)F)ccc1N1CCCC1 | 15.2% |
| Cc1ccc(-c2cc(C(=O)Nc3ccc4c(c3)OCCO4)c3ccccc3n2)cc1 | 10.4% |
| CC(C)(C)C(=O)NC(=S)Nc1ccc(Cl)c(C(=O)O)c1 | 10.2% |
| O=C(CN1CCN(S(=O)(=O)c2ccc(Cl)cc2)CC1)Nc1ccc2c(c1)OCCO2 | 6.44% |
| CCOC(=S)N/C(=N\S(C)(=O)=O)c1ccccc1 | 0.681% |
| Cc1ccn2c(=O)c(C(=O)NCCC3=CCCCC3)c(O)nc2c1 | 29.1% |
| CCC(C)N(C(=O)CSc1nc(-c2ccccc2)cs1)C1CCS(=O)(=O)C1 (stereo not shown) | 8.06% |
| O=C(O)/C=C/c1ccccc1Oc1ccccc1 | 14.3% |
| CC(C)Sc1nnc([C@@H]2CCCN2C(=O)OC(C)(C)C)o1 | 12.4% |
| CN(C)S(=O)(=O)c1cccc(NC(=O)COC(=O)CNC(=O)c2cccc([N+](=O)[O-])c2)c1 | -4.61% |

| SMILES | hERG current change (%, negative = inhibition) at 1uM |
| --- | --- |
| CCc1c(C)sc(NC(=O)c2cc(C)on2)c1C#N | 5.33% |
| C[C@@H](C(=O)NCC1CCCO1)N1C(=O)N2CCc3c([nH]c4ccccc34)[C@@]2(C)C1=O (stereo partly shown) | 4.53% |
| O=C(c1ccc(Cn2c(=O)[nH]c3ccsc3c2=O)cc1)N1CCN(c2ccccc2)CC1 | 9.59% |
| COc1ccc(C(=O)NCCc2ccccc2F)cc1OC1CCN(C(C)=O)CC1 | 12.5% |
| COc1cc(/C=N/NC(=O)c2c(-c3ccccc3)noc2C)ccc1O | 7.58% |
| CN1CCN(CCCNC(=O)CN2C(=O)COc3ccccc32)CC1 | 15.7% |
| Cc1nnc(SCC(=O)NC2CC2)s1 | 6.18% |
| O=C(CNC(=O)c1ccco1)Nc1ccc(F)cc1 | -2.29% |
| CC1CCN(C(=O)CCN2C(=O)/C(=C/c3cccs3)SC2=S)CC1 | 7.54% |
| CC(=O)c1cccc(N(C(=O)CNC(=O)c2ccco2)C(C(=O)NC2CCCC2)c2ccco2)c1 (stereo not shown) | 10.8% |
| COc1ccc(S(=O)(=O)Nc2ccc3oc(C)c(C(C)=O)c3c2)cc1 | 21.5% |
| COc1ccc(-c2c(O)c(C#N)c(-c3ccccc3)n(-c3ccc(OC)cc3)c2=O)cc1 | 9.11% |
| CCOc1ccc(NC(=O)CN(C)C(=O)c2c(-c3ccccc3Cl)noc2C)cc1OCC | 0.603% |
| Cc1cc(C)cc(NC(=O)Nc2cc(-c3ccccc3)nn2C)c1 | 20.2% |
| CC(=O)c1cccc(NC(=O)C23CC4CC(C2)CC(n2cncn2)(C4)C3)c1 | 9.18% |
| CC(=O)N1c2ccc(S(=O)(=O)NC(CC(=O)O)c3ccc(Br)cc3)cc2CC1C (stereo not shown) | 24.6% |
| CC(CNCC1CCCO1)COc1cccc2ccccc12 (stereo not shown) | 5.61% |
| COc1ccccc1C(=O)N/C(=C\c1cn(S(=O)(=O)N(C)C)c2ccccc12)C(=O)NCCCN1CCOCC1 | 7.97% |
| Cc1ccc(S(=O)(=O)c2nc(Nc3ccccc3C#N)sc2Cl)cc1 | 7.69% |
| COc1ccc(C2N(c3ccccc3)C(=S)N3CCCN23)cc1 (stereo not shown) | 11.1% |
| CN(C)c1oc(-c2ccccc2)nc1C#N | 2.37% |
| CCOc1cc(C2NN=C(c3ccccc3)S2)ccc1OCc1ccccc1Cl (stereo not shown) | 12.9% |

| SMILES | hERG current change (%, negative = inhibition) at 1uM |
| --- | --- |
| O=C(CN(C(=O)CCC(=O)Nc1ccccn1)C1CCCC1)NCc1ccccc1 | 4.06% |
| O=C1Nc2ccc([N+](=O)[O-])cc2OC1CCN1CCN(Cc2ccc3c(c2)OCO3)CC1 (stereo not shown) | -4.99% |
| COc1ccc(/C=C(/NC(=O)c2ccccc2)C(=O)N2CCC(C)CC2)cc1 | 3.37% |
| O=C1OC(=O)C2C1[C@@H]1CC[C@H]2O1 (stereo partly shown) | 16.3% |
| C[C@@H](NC(=O)c1nc[nH]c1C(=O)N[C@@H](Cc1ccccc1)C(=O)OC(C)(C)C)c1ccccc1 | 15.3% |
| COc1cccc(NC(=O)c2ccc(Cn3cc([N+](=O)[O-])cn3)o2)c1 | -3.18% |
| CCOc1cccc(/C=C/c2ccc3ccccc3n2)c1OC(C)=O | 31.6% |
| Cc1c(CCOC(=O)c2ccc(N3CCOCC3)c([N+](=O)[O-])c2)sc[n+]1CC#N.[Cl-] | 6.84% |
| COCCN1C(=O)c2oc3c(C)cc(C)cc3c(=O)c2C1c1cccc(O)c1 (stereo not shown) | 12.1% |
| Cl.O.O=C1CC(=C(c2ccccc2)c2ccccc2)C(=O)N1CCN1CCN(c2cccc(Cl)c2)CC1 | 11.9% |
| Nc1ccc(C(=O)N2CCCC2)cc1 | 7.82% |
| CCOC(=O)c1ccc2ncc(C(=O)OCC)c(NCCN3CCOCC3)c2c1 | -15.2% |
| Cn1c(=O)c2cc(S(=O)(=O)Nc3cccc(F)c3)ccc2n(C)c1=O | 11.7% |
| O=C1C2C3c4ccccc4C(c4ccccc43)C2C(=O)N1c1cccnc1 (stereo not shown) | 5.28% |
| COc1ccc(NC(=O)NC2CCN(C(C)C)CC2)c(OC)c1 | 0.138% |
| O=C(NCc1ccccc1)C1=C[C@H](c2ccccc2)C[C@H](OCc2ccc(CO)cc2)O1 | 5.85% |
| Cc1cc(NC(=O)c2ccccc2)n(C)n1 | 15.5% |
| C=CCOc1c(Br)cc(CNn2c(C)n[nH]c2=S)cc1OC | 14% |
| Cc1nnc(NCCc2ccccc2)c2ccccc12 | 7.24% |
